Among all 310,000 compounds or so, about 2,200 (0.71%) showed an effect of 50% or more. The effect is printed as a negative number. The list shows a part of the results.
biological target: human ether-à-go-go-related gene (hERG) potassium channel (human, UniProt Q12809); test: primary screen, population patch clamp on CHO cells stably expressing hERG
Sequence (Q12809 whole entry, looked up): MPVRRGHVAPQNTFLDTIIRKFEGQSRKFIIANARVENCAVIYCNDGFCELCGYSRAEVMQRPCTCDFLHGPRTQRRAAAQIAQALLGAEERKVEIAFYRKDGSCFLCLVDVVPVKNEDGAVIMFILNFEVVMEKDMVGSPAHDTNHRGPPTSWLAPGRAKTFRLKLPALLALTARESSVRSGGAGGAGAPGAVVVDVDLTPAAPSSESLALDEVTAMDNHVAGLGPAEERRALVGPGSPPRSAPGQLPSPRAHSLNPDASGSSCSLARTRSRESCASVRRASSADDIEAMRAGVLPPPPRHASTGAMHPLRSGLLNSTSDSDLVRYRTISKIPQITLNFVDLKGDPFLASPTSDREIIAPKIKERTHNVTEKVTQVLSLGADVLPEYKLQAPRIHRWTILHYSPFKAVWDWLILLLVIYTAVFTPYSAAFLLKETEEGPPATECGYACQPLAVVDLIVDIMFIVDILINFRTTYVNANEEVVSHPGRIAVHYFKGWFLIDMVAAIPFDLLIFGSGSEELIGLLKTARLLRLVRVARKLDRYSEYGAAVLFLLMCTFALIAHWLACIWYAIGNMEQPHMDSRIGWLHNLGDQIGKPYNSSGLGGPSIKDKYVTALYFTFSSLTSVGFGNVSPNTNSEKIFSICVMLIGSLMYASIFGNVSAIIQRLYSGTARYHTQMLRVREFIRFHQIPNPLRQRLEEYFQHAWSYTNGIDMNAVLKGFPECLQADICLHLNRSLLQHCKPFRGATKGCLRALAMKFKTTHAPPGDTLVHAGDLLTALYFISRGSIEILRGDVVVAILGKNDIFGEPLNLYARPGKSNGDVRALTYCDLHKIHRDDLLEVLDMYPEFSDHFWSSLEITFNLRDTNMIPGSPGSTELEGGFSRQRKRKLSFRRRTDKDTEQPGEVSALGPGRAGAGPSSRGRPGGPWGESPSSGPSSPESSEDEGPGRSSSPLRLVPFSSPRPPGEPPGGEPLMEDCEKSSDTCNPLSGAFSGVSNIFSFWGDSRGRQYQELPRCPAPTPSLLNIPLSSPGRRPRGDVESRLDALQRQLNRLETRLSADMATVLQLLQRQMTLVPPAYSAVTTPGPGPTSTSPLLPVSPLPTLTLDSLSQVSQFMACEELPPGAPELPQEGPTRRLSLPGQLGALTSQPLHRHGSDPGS

Row | SMILES | hERG current change (%, negative = inhibition) at 1uM [%]
1 | CSc1nnnn1-c1cccc(O)c1 | 6.49
2 | CC1=C(C(=O)OC2CCCCC2)C(c2ccc(C)o2)C2=C(CCCC2=O)N1 (stereo not shown) | 0.605
3 | CCSc1ncnc2c1oc1ccccc12 | 18.7
4 | CCNc1nc(Oc2ccc(F)cc2)cc(C(F)(F)F)n1 | 9.09
5 | O=C(c1ccsc1)N1CCN(C(=O)c2cccs2)CC1 | -11.7
6 | Cc1ccc(-n2cc3c(-c4cccc(Br)c4)nnc(C)c3n2)cc1 | 13.3
7 | CCn1cc(C(=O)N2CCc3ccccc3C2)c(=O)c2cc(S(=O)(=O)N3CCCCC3)ccc21 | -19.3
8 | Cc1ccc(NC(=O)CCN2C(=O)CSC2=O)c(C)c1 | 24.9
9 | CCOC(=O)N1CCN(S(=O)(=O)c2ccc(Br)cc2)CC1 | 9.69
10 | CCOC(=O)C1CCCN(C(=O)COC(=O)C2=COCCO2)C1 (stereo not shown) | 14.6
11 | O=C(c1ccccc1)c1ccccc1N/C=C/c1nnnn1-c1ccccc1 | 10.9
12 | COc1ccccc1/C=C/C=N/n1c(-c2ccncc2)n[nH]c1=S | 18.8
13 | CC(Oc1cc2oc(=O)c3c(c2cc1Cl)CCCC3)C(=O)NCc1ccncc1 (stereo not shown) | 12.4
14 | CC(C)c1ccc(NC(=O)Nc2cc3sccc3n2C)cc1 | 12.5
15 | CC(=O)c1c(C)[nH]c(C(=O)OCC(=O)Nc2ccc([N+](=O)[O-])cc2Cl)c1C | 4.5
16 | O=C(O)c1nonc1-c1nonc1C(=O)O | -7.52
17 | CC(C)(C)c1ccc(O)c(N=Cc2cc3c(cc2[N+](=O)[O-])OCO3)c1 | 11.2
18 | CCOC(=O)c1cnc2cc(C)ccn2c1=O | 3.12
19 | CCOc1ccccc1C1C2C(=O)N(c3ccccc3)C(=O)C2ON1c1ccccc1 (stereo not shown) | -5.21
20 | C/C(=N\Nc1nc(C)cc(-c2ccccc2)n1)c1ccc(C)o1 | 6.24

Row | SMILES | hERG current change (%, negative = inhibition) at 1uM [%]
21 | C#CCNC(=O)C1=C[C@H](C2CCCCC2)C[C@H](OCc2ccc(CO)cc2)O1 | 2.5
22 | O=C(COC(=O)c1cccs1)Nc1cccc(S(=O)(=O)NC2=NCCCCC2)c1 | 3.35
23 | Nc1cc(-c2ccc(Br)cc2)nn1S(=O)(=O)c1cccc2nsnc12 | 10.2
24 | COc1ccc(C(C#N)Nc2ccccc2OC)cc1 (stereo not shown) | 4.52
25 | O=C(Nc1nnc(/N=C/c2ccco2)s1)c1ccc(F)cc1 | 11.3
26 | CCCCCCCNC1=CC(=O)CC(c2ccccc2)C1 (stereo not shown) | -63.2
27 | C=CCn1c(N)cc(=O)nc1SCC(=O)Nc1ccc(C)cc1 | 10.3
28 | CCN(c1cc(C)cc(C)c1)S(=O)(=O)c1nnc(NC(=O)C(C)(C)C)s1 | 14.2
29 | CN1C(=O)N(C)C(=O)C2(Cc3cc(N)ccc3N3CCN(c4ccccc4F)CC32)C1=O (stereo not shown) | 3.47
30 | COc1ccc(S(=O)(=O)N2CCCCC2)cc1NC(=O)c1cnc(C)cn1 | 8.47
31 | COc1ccc(C2C(=O)N(CCc3ccccc3)CC(=O)N2C2CCCCC2)cc1 (stereo not shown) | -8.51
32 | COC12C(COC(N)=O)C3=C(C(=O)C(C)=C(N)C3=O)N1CC1C2N1C (stereo not shown) | 4.25
33 | Cc1ccc(N2CCN(S(=O)(=O)N3CCOCC3)CC2)cc1C | 11.1
34 | COCCNC(=S)N/N=C(\C)c1ccc(Cl)s1 | 8.63
35 | C/C(N)=C(/C#N)C(=O)CSc1nnc(-c2ccc(OC(F)F)cc2)o1 | 0.514
36 | C[C@H]1CCC[C@]2(O[C@@H](CCO)C[C@H](O)[C@H]2O)O1 | 14.8
37 | COc1ccccc1N1C(=O)CSC1=S | 10
38 | CCOC(=O)C1=c2s/c(=C\c3ccncc3)c(=O)n2C(N)=C(C(=O)OC)C1c1ccncc1 (stereo not shown) | 5.64
39 | COC(=O)c1cccc(NC(=O)c2ccc(S(=O)(=O)N3CCN(C)CC3)cc2)c1 | 16.5
40 | CCOc1ccc(/C=N/n2cc(-c3ccccc3)[nH]c2=S)cc1 | 14.8

Row | SMILES | hERG current change (%, negative = inhibition) at 1uM [%]
41 | COc1ccc(C(=O)Nc2sc(C)c(C)c2CN2CC(C)OC(C)C2)cc1 (stereo not shown) | 16.5
42 | Cn1c(=O)c2c(ncn2CCCc2ccccc2)n(C)c1=O | 4.04
43 | C[C@@H]1CCC[C@H](C)N1Cc1nc(Cc2ccccc2Cl)no1 | 14.1
44 | COc1ccc(NC(=O)CSc2nnc(CNc3ccc(F)cc3)o2)c(OC)c1 | 12.9
45 | Cc1ccccc1N=C(NO)c1nonc1N | 11
46 | COc1ccc(CCN2CC(C(=O)NC3CCOCC3)CCC2=O)cc1 (stereo not shown) | 4.8
47 | CCc1cccc(CC)c1NC(=O)CN(CC(=O)O)CC(=O)O | 12.1
48 | O=C(/C=N/O)NCCCN1CCCCCC1 | 7.96
49 | Cc1ccc2c(c1)nnn2C1CCN(S(=O)(=O)c2ccc(C(=O)N3C(C)CCCC3C)cc2)CC1 (stereo not shown) | 7.12
50 | COc1ccc(C(c2nnnn2C2CCCCC2)N2CCN(c3ccccc3F)CC2)cc1 (stereo not shown) | 7.35
51 | CCOC(=O)N1CCC(NC(=O)c2ccc3snnc3c2)CC1 | -10.2
52 | CCc1c(C)[nH]n(-c2nc(-c3ccccc3)cs2)c1=O | 19.8
53 | COc1ccc(CNc2cccc(F)c2)cc1Br | 2.58
54 | COC/C=C/C1=CC2=CC(=O)C(C)(OC(=O)c3cnc4ccccc4n3)C(=O)C2=CN1C1CCCCC1 (stereo not shown) | 9.88
55 | O=C1Nc2ccccc2S/C1=C\C(=O)N1CCCC1 | 11
56 | O=C(NC1CCCCC1)N1CCC(n2cnc3ccccc32)CC1 | 11.3
57 | C[C@@H]1CN(C2CCN(Cc3nc(C(c4ccccc4)c4ccccc4)no3)CC2)C[C@H](C)O1 | -2.33
58 | O=C(/C=C/c1ccc(OCc2c(F)cccc2Cl)cc1)N1CCOCC1 | -3.56
